Experimental data published in the supplement of paper PMC3334620.
Over roughly 33,000 sequences, “E-score (-0.5 to 0.5)” has its median near -0.013; the highest 2% begin near 0.3. This is one part of the list.

These sequences were tested against T1, Msn1 (UniProt P22148) (assay: PBM E-score (8-mer binding enrichment) (E-score (-0.5 to 0.5)); higher = stronger / more preferred TF binding; most listed sequences are background and not binding sites). Conditions: protein concentration: 200 nM; construct: GST-full length.
T1 sequence: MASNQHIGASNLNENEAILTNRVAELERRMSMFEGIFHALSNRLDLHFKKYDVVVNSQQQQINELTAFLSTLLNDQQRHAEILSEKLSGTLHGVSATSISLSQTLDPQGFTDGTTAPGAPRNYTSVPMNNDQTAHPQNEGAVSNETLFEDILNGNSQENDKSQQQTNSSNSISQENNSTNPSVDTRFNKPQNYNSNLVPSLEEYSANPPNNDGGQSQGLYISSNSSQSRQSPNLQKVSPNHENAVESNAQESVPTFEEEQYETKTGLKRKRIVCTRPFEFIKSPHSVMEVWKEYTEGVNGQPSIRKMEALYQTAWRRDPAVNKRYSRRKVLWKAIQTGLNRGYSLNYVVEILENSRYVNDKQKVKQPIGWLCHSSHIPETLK
Experimental: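 Universal 'all 10-mer' protein binding microarrays (Agilent AMADID 015681) probed with GST-tagged S. cerevisiae TFs (full-length or DBD) made by in vitro transcription/translation (PURExpress), about 100-200 nM. Bound TF was detected with fluorescent anti-GST. Each ungapped 8-mer (which stands for itself and its reverse complement) is scored by the PBM enrichment score (E-score), a modified Wilcoxon-Mann-Whitney statistic from -0.5 to +0.5, computed with the Universal PBM Analysis Suite. Scale: above 0.35 generally sequence-specific binding.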

Sequence | PBM E-score
CTCGTACC | 0.0312
CCATACTA | 0.138
TCTACGAA | -0.0488
TCTGCAGA | 0.227
GGCACACC | -0.319
CGACTAAG | 0.00905
ATTTTCCC | 0.11
GTATTTAA | 0.0163
CAGGATGC | -0.0359
GAAAAGAA | -0.0386
AAGCATGC | -0.191
AGCTGTGC | -0.137
AGGGCCGA | -0.0423
CGGTAGCA | 0.0348
ACGCGGCA | 0.0334
AAGTAAAT | 0.202
CTGCTTTC | 0.0972
ATGGACAC | 0.437
AGGTAGCG | 0.00657
TACACATA | 0.0567
AGGGCTGA | -0.2
ACTGAACA | 0.0547
GAGGATAA | -0.111
AGCAAGAG | -0.121
ACGCCGGC | 0.0705

Sequence | PBM E-score
GCATATGC | -0.0698
AACTTCTT | -0.0294
AACATAGA | -0.021
CATGTGAC | 0.025
ACCGCAGG | 0.00015
AGATGACC | -0.0211
CTTAACCA | 0.133
ATGAAGGC | -0.0558
CGCAAGCA | -0.00584
CGCCCTCA | -0.0601
ACATGTAT | 0.312
TAAACGAA | 0.143
ACGCGAAT | 0.117
GGACTAGA | 0.136
AATGCGAG | 0.0646
GCACCTAA | -0.134
AGTCGGTG | -0.227
CACGATGG | -0.0924
TATTAACA | 0.214
AGAAGTGG | -0.138
AACAATCT | -0.0296
AAGGTAAA | 0.0622
ACCATTAT | -0.0314
CGCGTCGC | 0.0974
TGACATAA | 0.364

Sequence | PBM E-score
AATAACTG | 0.172
GCTCGAGC | 0.195
ACAGGCTG | -0.27
GACAAGGC | 0.19
ACGGGAAA | 0.0885
AGGGGGTG | -0.411
ATAGGTCA | 0.228
GAATTTAC | 0.0867
ACAATGAC | 0.154
CGCCTGAA | 0.101
CTATTTCC | 0.063
CAGACTGA | -0.0553
ACATACGT | -0.0371
CACACCCC | -0.293
ACCCGGCG | -0.207
TATATACA | 0.261
AGCAGACT | 0.11
CAAGGCAA | -0.083
GGTACGTA | 0.058
ACCCAAAA | 0.147
GCCTTCGC | -0.098
CGTGCGAA | 0.0365
AGGGCGAT | -0.253
CCATATCC | -0.0745
ATGGTGGG | -0.316

Sequence | PBM E-score
CGCGCAGA | 0.257
TACTTACA | -0.158
TAATGAAA | 0.226
AGGACATC | 0.477
CAGGCGAG | -0.147
AACTCCTC | -0.228
GCGGCATA | 0.0827
GCCTACCC | -0.24
ATCGGAAA | 0.172
GTTCAAGA | -0.0249
ATGGAGCA | -0.0884
GCCCTACC | -0.387
CCGCCGTC | -0.114
CACACTAG | -0.0633
ACGACGTG | 0.0937
TGACAGCA | 0.192
GGCTACAA | -0.12
ACGAATGA | 0.0449
CGACTTGA | -0.00646
ACCAGTGA | -0.174
CTAGCCTC | -0.345
GAATTGAA | 0.0169
CCACTGTA | -0.0172
AATCGGAC | 0.136
CAGCGGCA | -0.0537

Sequence | PBM E-score
AAGTCCAC | 0.243
GCGTATCA | 0.00071
ACTGAGCG | -0.162
GGCGTGAA | 0.0176
AATTCAGC | -0.123
ATCCTGGC | -0.12
AGCACGAC | -0.0815
AATTTTGT | 0.34
CACAGTCC | -0.00839
GAAAGGGA | -0.151
GCACTAAC | -0.103
AGCGGCTG | -0.22
GAACTCAA | 0.0257
CTGTGCTC | 0.0526
CGGCAGAC | -0.0763
AGCGGTTG | -0.0322
ACCAACGG | -0.0412
ATGGTGCC | -0.137
AGCAGGGG | -0.372
CAGTTATG | 0.0154
AGGCGTCG | 0.0157
CCCCGCCA | -0.0914
AGTATGCG | -0.115
GCACCCGA | -0.182
AACGTGCT | -0.22

Sequence | PBM E-score
AAATAATA | 0.146
AGACTTAT | 0.134
TGTGCTAA | -0.03
GGACTTTA | 0.328
AACTCTCG | 2e-05
AACCTTAG | -0.0966
GGACCCGA | -0.127
GTGACAAA | 0.423
TCGTGAAA | 0.15
TAAATACA | 0.079
AAATATAC | 0.0952
AACTAGTT | 0.116
GTTCTCCA | -0.0125
CGACCAAA | 0.113
CGTATGGA | 0.0784
TAGGTGGA | 0.166
CCATATAG | -0.105
GGATCATA | -0.0918
ATTAATGG | 0.216
ATATACCA | -0.00333
GCTGAGTA | 0.068
ACTCGTAC | -0.0875
GGCTAACA | -0.0889
CCAACTGG | -0.0262
ATTAACTA | 0.0161

Sequence | PBM E-score
ATACCGAC | 0.0938
GGTGAACC | -0.0638
CCCCGATA | 0.0947
CTCGTGGC | -0.0934
AGTCTATC | -0.104
CCCTTAAG | 0.0259
AGTTAGAA | 0.146
CCGGTGTA | -0.14
AACGGCCT | -0.222
CCTAAGTA | 0.0589
CTAAAAGA | 0.00238
ATCCGATC | 0.15
ACAACATC | 0.0825
TATATTGA | 0.0589
GCTTATCA | -0.161
AATAACGC | -0.131
CGATCCAA | -0.12
ATCGAATG | 0.0136
CTATGTAA | -0.0283
AGCACTAT | -0.0501
CACACTTA | 0.036
GAGGAGTA | -0.116
